Results reported in the supplement of paper PMC8728848.
The other results are listed elsewhere or left out.

Columns and labels:
Assay in all cases: glycan array binding signal (z-score within array); higher = stronger binding
Settings in all cases: glycan notation: IUPAC condensed, linker removed
[1] = target: Man(a1-3)[Man(a1-6)]Man(a1-6)[Man(a1-2)Man(a1-3)]Man(b1-4)GlcNAc(b1-4)GlcNAc
Outline: (§1)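 Glycan array data came from 3228 arrays in the Consortium for Functional Glycomics database, and only arrays with an available protein sequence were kept. Glycan names were put into IUPAC-condensed notation, and columns mapping to the same glycan were averaged. The binding signal is a within-array Z-score, averaged across arrays of one protein sequence run at different concentrations or buffers and across linkers. A negative Z-score can be read as non-binding.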

[2] = target: Man(a1-3)[Man(a1-6)]Man(a1-6)[Man(a1-3)]Man
Outline: as §1

[3] = target: Man(a1-3)[Man(a1-6)]Man(a1-6)[Man(a1-3)]Man(b1-4)GlcNAc(b1-4)GlcNAc
Outline: as §1

[4] = target: Man(a1-3)[Man(a1-6)]Man(b1-4)GlcNAc(b1-4)GlcNAc
Outline: as §1

[5] = target: Man(a1-3)[Man(a1-6)]Man(b1-4)GlcNAc(b1-4)[Fuc(a1-6)]GlcNAc
Outline: as §1

Man(a1-6)Man = target: Man(a1-6)Man
Outline: as §1

Man(b1-4)GlcNAc = target: Man(b1-4)GlcNAc
Outline: as §1

MurNAc(b1-4)GlcNAc = target: MurNAc(b1-4)GlcNAc
Outline: as §1

Neu5Ac(a2-3)Gal = target: Neu5Ac(a2-3)Gal
Outline: as §1

[6] = target: Neu5Ac(a2-3)Gal(b1-3)GalNAc
Outline: as §1

[7] = target: Neu5Ac(a2-3)Gal(b1-3)GalNAc(b1-3)Gal(a1-4)Gal(b1-4)Glc
Outline: as §1

[8] = target: Neu5Ac(a2-3)Gal(b1-3)GalNAc(b1-3)Gal(b1-4)GlcNAc
Outline: as §1

[9] = target: Neu5Ac(a2-3)Gal(b1-3)GalNAc(b1-4)[Neu5Ac(a2-3)]Gal(b1-4)Glc
Outline: as §1

[10] = target: Neu5Ac(a2-3)Gal(b1-3)GalNAc(b1-4)[Neu5Ac(a2-8)Neu5Ac(a2-3)]Gal(b1-4)Glc
Outline: as §1

[11] = target: Neu5Ac(a2-3)Gal(b1-3)GalNAc6S
Outline: as §1

[12] = target: Neu5Ac(a2-3)Gal(b1-3)GlcNAc
Outline: as §1

[13] = target: Neu5Ac(a2-3)Gal(b1-3)GlcNAc(b1-2)Man
Outline: as §1

[14] = target: Neu5Ac(a2-3)Gal(b1-3)GlcNAc(b1-2)Man(a1-3)[GlcNAc(b1-4)][Neu5Ac(a2-3)Gal(b1-3)GlcNAc(b1-2)Man(a1-6)]Man(b1-4)GlcNAc(b1-4)GlcNAc
Outline: as §1

[15] = target: Neu5Ac(a2-3)Gal(b1-3)GlcNAc(b1-2)Man(a1-3)[Neu5Ac(a2-3)Gal(b1-3)GlcNAc(b1-2)Man(a1-6)]Man(b1-4)GlcNAc(b1-4)GlcNAc
Outline: as §1

[16] = target: Neu5Ac(a2-3)Gal(b1-3)GlcNAc(b1-3)Gal(b1-3)GlcNAc
Outline: as §1

[17] = target: Neu5Ac(a2-3)Gal(b1-3)GlcNAc(b1-3)Gal(b1-4)GlcNAc
Outline: as §1

[18] = target: Neu5Ac(a2-3)Gal(b1-3)GlcNAc(b1-3)GalNAc
Outline: as §1

[19] = target: Neu5Ac(a2-3)Gal(b1-3)GlcNAc(b1-4)Gal(b1-4)Glc
Outline: as §1

[20] = target: Neu5Ac(a2-3)Gal(b1-3)GlcNAc(b1-6)GalNAc
Outline: as §1

[21] = target: Neu5Ac(a2-3)Gal(b1-3)GlcNAc6S
Outline: as §1

[22] = target: Neu5Ac(a2-3)Gal(b1-3)[Fuc(a1-4)]GlcNAc
Outline: as §1

[23] = target: Neu5Ac(a2-3)Gal(b1-3)[Fuc(a1-4)]GlcNAc(b1-3)Gal(b1-3)[Fuc(a1-4)]GlcNAc
Outline: as §1

[24] = target: Neu5Ac(a2-3)Gal(b1-3)[Fuc(a1-4)]GlcNAc(b1-3)Gal(b1-4)[Fuc(a1-3)]GlcNAc
Outline: as §1

[25] = target: Neu5Ac(a2-3)Gal(b1-3)[GlcNAc(b1-6)]GalNAc
Outline: as §1

[26] = target: Neu5Ac(a2-3)Gal(b1-3)[Neu5Ac(a2-3)Gal(b1-4)]GlcNAc
Outline: as §1

[27] = target: Neu5Ac(a2-3)Gal(b1-3)[Neu5Ac(a2-6)]GalNAc
Outline: as §1

[28] = target: Neu5Ac(a2-3)Gal(b1-3)[Neu5Ac(a2-6)]GlcNAc(b1-3)[Fuc(a1-3)[Gal(b1-4)]GlcNAc(b1-6)]Gal(b1-4)Glc
Outline: as §1

[29] = target: Neu5Ac(a2-3)Gal(b1-3)]Neu5Ac(a2-3)Gal(b1-4)]GlcNAc
Outline: as §1

Neu5Ac(a2-3)Gal(b1-4)Glc = target: Neu5Ac(a2-3)Gal(b1-4)Glc
Outline: as §1

[30] = target: Neu5Ac(a2-3)Gal(b1-4)GlcNAc
Outline: as §1

[31] = target: Neu5Ac(a2-3)Gal(b1-4)GlcNAc(b1-2)Man
Outline: as §1

[32] = target: Neu5Ac(a2-3)Gal(b1-4)GlcNAc(b1-2)Man(a1-3)[GlcNAc(b1-4)][Neu5Ac(a2-3)Gal(b1-4)GlcNAc(b1-2)Man(a1-6)]Man(b1-4)GlcNAc(b1-4)GlcNAc
Outline: as §1

B1: DBA (Dolichos biflorus) (protein)
chain: ANIQSFSFKNFNSPSFILQGDATVSSGKLQLTKVKENGFPLRFPSGRAFYSSPIQIYDKFTGAVASWATSFTVKISAPSKASFADGIAFALVPVGSEPRRNGGYLGVFDSDVYNNSAQTVAVEFDTLSNSGWDPSMKHIGIDVNSIKSIATVSWDLANGENAEILITYNAATSLLVVSLVHPSRRTSYILSERVDITNELPEYVGVGFSATTGLSEGYIETHDVLSWSFASRLPDDSTAEPLDLARYLVRNVL
glycan array binding signal (z-score) [1]: -0.047 | glycan array binding signal (z-score) [2]: -0.1 | glycan array binding signal (z-score) [3]: -0.124 | glycan array binding signal (z-score) [4]: -0.13 | glycan array binding signal (z-score) [5]: -0.121 | glycan array binding signal (z-score) (Man(a1-6)Man): -0.083 | glycan array binding signal (z-score) (Man(b1-4)GlcNAc): -0.107 | glycan array binding signal (z-score) (MurNAc(b1-4)GlcNAc): -0.119 | glycan array binding signal (z-score) (Neu5Ac(a2-3)Gal): -0.119 | glycan array binding signal (z-score) [6]: -0.158 | glycan array binding signal (z-score) [7]: -0.077 | glycan array binding signal (z-score) [8]: -0.203 | glycan array binding signal (z-score) [9]: -0.14 | glycan array binding signal (z-score) [10]: -0.103 | glycan array binding signal (z-score) [11]: -0.139 | glycan array binding signal (z-score) [12]: -0.13 | glycan array binding signal (z-score) [13]: 0.101 | glycan array binding signal (z-score) [14]: -0.172 | glycan array binding signal (z-score) [15]: -0.139 | glycan array binding signal (z-score) [16]: -0.12 | glycan array binding signal (z-score) [17]: -0.154 | glycan array binding signal (z-score) [18]: -0.113 | glycan array binding signal (z-score) [19]: -0.108 | glycan array binding signal (z-score) [20]: -0.111 | glycan array binding signal (z-score) [21]: -0.064 | glycan array binding signal (z-score) [22]: -0.115 | glycan array binding signal (z-score) [23]: -0.063 | glycan array binding signal (z-score) [24]: -0.126 | glycan array binding signal (z-score) [25]: -0.093 | glycan array binding signal (z-score) [26]: -0.188 | glycan array binding signal (z-score) [27]: -0.104 | glycan array binding signal (z-score) [28]: -0.124 | glycan array binding signal (z-score) [29]: -0.117 | glycan array binding signal (z-score) (Neu5Ac(a2-3)Gal(b1-4)Glc): -0.105 | glycan array binding signal (z-score) [30]: -0.144 | glycan array binding signal (z-score) [31]: -0.076 | glycan array binding signal (z-score) [32]: -0.204
